Experimental data reported in PubChem BioAssay (NCI).
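How tested: cells in 96-well plates exposed to compound for 48 hours at five concentrations. TGI: total growth inhibition.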 A number of entries come with more than one value. Only these are listed. There may be further records. A record mostly stands for its own series of concentrations, which the source does not state; a value can be the end of its range.

Tests used:
Experiment in all cases: inhibition of tumour cell growth, NCI panel, 48 h
[1] = tested on: MOLT-4 leukemia
[2] = tested on: NCI-H522 lung
[3] = tested on: SR leukemia
[4] = tested on: PC-3 prostate
[5] = tested on: HL-60(TB) leukemia

SMILES: O=C(NNc1nc2cc(F)c(F)cc2n2cccc12)c1cccnn1
- TGI [1]: 30 µM and 963 nM
- TGI [2]: 30 µM and 1.29 µM
- TGI [3]: 30 µM and 1.29 µM
- TGI [4]: 8.04 µM and > 100 µM
- TGI [5]: 8.37 µM and 828 nM
